This is one part of the list. These are noisy estimates, calculated here from bound and input reads.
Each sequence was assayed against T1, Pho4 (S. cerevisiae) (UniProt P07270) (assay: relative binding free energy (BET-seq); higher = weaker binding). Settings: reference: library average.
T1 sequence: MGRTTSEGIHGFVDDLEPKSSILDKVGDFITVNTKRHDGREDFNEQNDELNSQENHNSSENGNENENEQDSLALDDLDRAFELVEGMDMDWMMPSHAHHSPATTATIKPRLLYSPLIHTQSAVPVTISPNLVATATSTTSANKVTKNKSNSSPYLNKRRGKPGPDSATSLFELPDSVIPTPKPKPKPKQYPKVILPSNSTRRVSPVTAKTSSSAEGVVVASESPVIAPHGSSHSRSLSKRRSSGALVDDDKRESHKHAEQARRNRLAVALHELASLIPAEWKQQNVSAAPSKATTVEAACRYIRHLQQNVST

Sequence	relative binding free energy
TGAGGCACGTGGAAAT	0.05 kcal/mol
GGTTTCACGTGAGCAT	0.41 kcal/mol
TACTGCACGTGGTTGA	-0.08 kcal/mol
GTAGTCACGTGTGTCG	0.14 kcal/mol
TTTGACACGTGAATGA	0.29 kcal/mol
GGGGACACGTGAAGTT	0.38 kcal/mol
TTTCACACGTGCAGTG	0.15 kcal/mol
GTTAACACGTGTGTTA	0 kcal/mol
TGTGCCACGTGTCATG	-0.1 kcal/mol
GGTCACACGTGTTGTA	0.14 kcal/mol
GTGGGCACGTGATTAA	0.16 kcal/mol
AGGCGCACGTGTTTTA	-0.07 kcal/mol
TTTGTCACGTGGAGTG	-0.04 kcal/mol
GGGATCACGTGGATTG	0.18 kcal/mol
AGTGTCACGTGGATGG	0.09 kcal/mol
TGTTACACGTGTATTG	0.19 kcal/mol
ATCGTCACGTGTTTTT	0.13 kcal/mol
GTTGTCACGTGATCAT	0.21 kcal/mol
GCTGGCACGTGGACGT	0.02 kcal/mol
ACTTGCACGTGTTGGT	0.08 kcal/mol
TTTTTCACGTGTATGT	0.25 kcal/mol
ATATTCACGTGTGCAT	0.25 kcal/mol
ACGGACACGTGGTTGT	-0.07 kcal/mol
AGCTGCACGTGAGGGA	0.13 kcal/mol
TCTGGCACGTGGTGCA	-0.14 kcal/mol
TTTATCACGTGTGTAT	0.16 kcal/mol

Sequence	relative binding free energy
ATTCTCACGTGGGATA	0.07 kcal/mol
ATGTTCACGTGACGTA	0.23 kcal/mol
GCCGTCACGTGGTGCG	0.18 kcal/mol
GTAGTCACGTGATAGT	0.24 kcal/mol
TATGACACGTGCTTTG	-0.19 kcal/mol
TAATTCACGTGTTAGT	0.24 kcal/mol
GAATACACGTGTGGTG	0.07 kcal/mol
ATATGCACGTGGGGAC	-0.07 kcal/mol
TTCACCACGTGTTGGT	-0.1 kcal/mol
GTAGACACGTGTTGGT	0.1 kcal/mol
AATGGCACGTGTGTAG	0.02 kcal/mol
GGCAGCACGTGTTTGT	0.06 kcal/mol
TCTTTCACGTGTTTTA	0.17 kcal/mol
GGGTGCACGTGGGAAC	0 kcal/mol
TGCGGCACGTGGGCTA	-0.29 kcal/mol
AGCGGCACGTGAGTGG	0.1 kcal/mol
TGTGGCACGTGGACCG	-0.29 kcal/mol
AAGGACACGTGGGTGG	-0.09 kcal/mol
CTTTGCACGTGTAGGC	0.26 kcal/mol
TTAGACACGTGCGGGG	-0.02 kcal/mol
AAGGTCACGTGTTTTT	0.25 kcal/mol
TAAATCACGTGAGGAT	0.53 kcal/mol
CCGTTCACGTGGGATG	0.23 kcal/mol
GCGGGCACGTGAAATT	0.39 kcal/mol
GTGACCACGTGGAGTG	-0.07 kcal/mol
GTTTACACGTGAAATT	0.47 kcal/mol

Sequence	relative binding free energy
TTGTTCACGTGTTAGT	0.29 kcal/mol
ATTTTCACGTGATCAA	0.36 kcal/mol
GTAGACACGTGTATGG	0 kcal/mol
GATTACACGTGTTGTA	0.23 kcal/mol
GTATGCACGTGAGGCG	0.06 kcal/mol
TTTTTCACGTGGCACT	0.14 kcal/mol
GGATTCACGTGAGTCT	0.38 kcal/mol
TGGTTCACGTGTGAAG	0.39 kcal/mol
GGCTCCACGTGTTGGT	0.05 kcal/mol
TAGTTCACGTGCAGAG	0.3 kcal/mol
GGGTCCACGTGTTTCG	0.24 kcal/mol
AGGATCACGTGAGTTG	0.35 kcal/mol
CTGGGCACGTGAGTAA	0.11 kcal/mol
TGGAGCACGTGTCTTT	-0.03 kcal/mol
TAGGACACGTGGGCAT	-0.07 kcal/mol
TTATACACGTGGGGAT	-0.05 kcal/mol
GAATGCACGTGGTGGC	0.06 kcal/mol
TAGGTCACGTGCGGGA	0.06 kcal/mol
AGGTGCACGTGAAGGA	0.25 kcal/mol
GATGGCACGTGGGTTT	-0.11 kcal/mol
CGAGTCACGTGGGGCT	-0.21 kcal/mol
AAGGACACGTGGGCGT	-0.23 kcal/mol
GTGGTCACGTGTTCTG	0.18 kcal/mol
TGTTACACGTGGGGCT	-0.04 kcal/mol
TGGGGCACGTGGTGTA	-0.16 kcal/mol
CGGGTCACGTGTGGGG	0.11 kcal/mol

Sequence	relative binding free energy
AGTTACACGTGGGGCT	0.02 kcal/mol
TTGAACACGTGCGAGG	0.02 kcal/mol
AGTGTCACGTGTCCTG	0.15 kcal/mol
TTGTTCACGTGCATTC	0.26 kcal/mol
GGTATCACGTGCCGGG	0.11 kcal/mol
GTGTCCACGTGGAGGG	0.04 kcal/mol
ATTCTCACGTGGGGTG	0.15 kcal/mol
TGTGCCACGTGGAGAG	-0.14 kcal/mol
GTATGCACGTGCTGGG	-0.13 kcal/mol
GTGCGCACGTGCGTAG	0 kcal/mol
GGGTGCACGTGCAAGA	0 kcal/mol
TGGCGCACGTGGGGGA	-0.27 kcal/mol
GTTGCCACGTGTGTTA	-0.14 kcal/mol
TGTTACACGTGGCTGG	0.02 kcal/mol
TAGTGCACGTGTTTAT	0.1 kcal/mol
ATGGGCACGTGCTCGT	-0.25 kcal/mol
TTAATCACGTGTGGTC	0.31 kcal/mol
GCTAGCACGTGGGTGT	-0.14 kcal/mol
TACAGCACGTGTTGTT	-0.13 kcal/mol
CTGGACACGTGGCGGT	-0.1 kcal/mol
CTATACACGTGTTTGT	0.03 kcal/mol
CTCGTCACGTGGTTGA	0.17 kcal/mol
ACGGACACGTGGGTGT	-0.26 kcal/mol
ACGAACACGTGGTGTG	-0.14 kcal/mol
CGTGGCACGTGTGTCA	-0.04 kcal/mol
GATATCACGTGGCGTT	0.18 kcal/mol

Sequence	relative binding free energy
GGGCTCACGTGATGTG	0.39 kcal/mol
TTTTACACGTGCGAGG	0.26 kcal/mol
TAGGGCACGTGCGCGT	-0.39 kcal/mol
AAATTCACGTGAGGGA	0.21 kcal/mol
TTGTTCACGTGTAAAG	0.31 kcal/mol
GTCGTCACGTGTGGCC	0.42 kcal/mol
GATTACACGTGGATGT	0.17 kcal/mol
TCGAGCACGTGTGGTA	-0.09 kcal/mol
AGGACCACGTGAAGGG	0.21 kcal/mol
TTGGCCACGTGTGAGG	0.15 kcal/mol
TTAATCACGTGTTGGG	0.17 kcal/mol
TGATACACGTGGATGT	0.08 kcal/mol
GTTCTCACGTGAGTTG	0.23 kcal/mol
ATATGCACGTGGGAAG	-0.08 kcal/mol
CAATGCACGTGTTGGT	0.01 kcal/mol
ATAGACACGTGTTAGG	0.12 kcal/mol
AGTTGCACGTGCGTCG	-0.04 kcal/mol
TTTAACACGTGAATTT	0.39 kcal/mol
CAGGGCACGTGGGGCT	-0.3 kcal/mol
TTAAGCACGTGGGCGA	-0.23 kcal/mol
TCGGTCACGTGTAGTA	0.17 kcal/mol
GGTGTCACGTGAAGTA	0.2 kcal/mol
TGGTACACGTGAAAGA	0.3 kcal/mol
TCATACACGTGGTTTG	-0.01 kcal/mol
AGCAGCACGTGTGGAG	0.04 kcal/mol
ATAGTCACGTGGTTTC	0.16 kcal/mol

Sequence	relative binding free energy
TTGTTCACGTGGATAG	0.19 kcal/mol
AGAGACACGTGTGCGA	0.24 kcal/mol
GGTGTCACGTGTGACA	0.11 kcal/mol
CATAGCACGTGTGGTA	0.03 kcal/mol
AAGTTCACGTGGCAGT	0.21 kcal/mol
TATAGCACGTGGTTTG	-0.14 kcal/mol
CTTGGCACGTGATGCG	0.04 kcal/mol
GGAAGCACGTGAAGGG	0.13 kcal/mol
TTAAGCACGTGGATGG	-0.16 kcal/mol
TAATTCACGTGTTAGG	0.34 kcal/mol
CGGGTCACGTGTATTG	0 kcal/mol
CTATTCACGTGTGGGA	0.21 kcal/mol
TCTAACACGTGTGGGT	0.09 kcal/mol
ATATACACGTGGATGG	0.1 kcal/mol
GGCGGCACGTGGACGT	0 kcal/mol
TAGGGCACGTGACGTT	-0.02 kcal/mol
GGGGGCACGTGGCATA	-0.33 kcal/mol
TAGACCACGTGTTGGG	-0.04 kcal/mol
AGTGGCACGTGGTTGG	-0.05 kcal/mol
GGAGGCACGTGTTATA	-0.09 kcal/mol
ATTCACACGTGGTGAT	0.04 kcal/mol
CTGAGCACGTGGTAGA	-0.08 kcal/mol
GTTTCCACGTGCGAGG	0.16 kcal/mol
TTTGCCACGTGAAAGT	0.14 kcal/mol
TGTCGCACGTGGAGAG	0.02 kcal/mol
TTGTCCACGTGTATGC	0.1 kcal/mol

Sequence	relative binding free energy
GGGCACACGTGCGTGG	-0.14 kcal/mol
CGGGCCACGTGTAGGA	0.13 kcal/mol
ATAGTCACGTGAGGAG	0.27 kcal/mol
AAATGCACGTGTAAGT	0.17 kcal/mol
CTGTGCACGTGGTGAG	-0.17 kcal/mol
GTTCGCACGTGGGGTC	-0.3 kcal/mol
ATATTCACGTGTCGTA	0.18 kcal/mol
GGTTGCACGTGAACAT	0.25 kcal/mol
TGGATCACGTGATGCT	0.22 kcal/mol
TTGTCCACGTGGCGGT	-0.16 kcal/mol
GAACTCACGTGGGGTA	0.15 kcal/mol
GACGACACGTGGGTGT	0.02 kcal/mol
GGTTTCACGTGCAGTT	0.38 kcal/mol
TAATTCACGTGTGCTA	0.35 kcal/mol
TTCCGCACGTGTTGGT	0.09 kcal/mol
GTGTCCACGTGGTGGG	0 kcal/mol
TGTTCCACGTGTTATG	0.08 kcal/mol
TTTCACACGTGGGTGC	-0.06 kcal/mol
TTTCGCACGTGTGGCG	-0.08 kcal/mol
GATGTCACGTGCATGG	-0.02 kcal/mol
TTTAGCACGTGATGTT	0.03 kcal/mol
CGAGACACGTGTGTGT	0.11 kcal/mol
GGTTTCACGTGAGAGC	0.46 kcal/mol
TGTTTCACGTGCAGAG	0.28 kcal/mol
CGGTCCACGTGTGGGG	0.02 kcal/mol
CAGTACACGTGATTGG	0.24 kcal/mol

Sequence	relative binding free energy
AGGTGCACGTGGCGTG	-0.26 kcal/mol
GAAAGCACGTGTGTTT	0.06 kcal/mol
ATGGTCACGTGGATAA	0.14 kcal/mol
GCGTACACGTGTGTAT	0.16 kcal/mol
TTTCACACGTGTATTA	0.09 kcal/mol
AGTTTCACGTGCGCTT	0.22 kcal/mol
TCGTGCACGTGGGCGG	-0.1 kcal/mol
TGGCTCACGTGGGCTG	0.04 kcal/mol
TTAGACACGTGTGGTC	0.1 kcal/mol
ATTGGCACGTGAGTAA	0.03 kcal/mol
AGATTCACGTGAAGTG	0.38 kcal/mol
GGGATCACGTGGCGCT	0.14 kcal/mol
TATGTCACGTGTTTTA	0.04 kcal/mol
CGTATCACGTGTGTTG	0.01 kcal/mol
AGGCGCACGTGGTAGG	-0.13 kcal/mol
GTAAGCACGTGACTGG	0.1 kcal/mol
TAGGTCACGTGTGTCG	0.13 kcal/mol
CTGCTCACGTGAGGGT	0.32 kcal/mol
AGGAACACGTGAGTGG	0.09 kcal/mol
TGATGCACGTGTAAAG	0.02 kcal/mol
GTAGTCACGTGGTAGA	0 kcal/mol
TATAACACGTGTATGT	-0.04 kcal/mol
TGTAGCACGTGGGTCA	-0.26 kcal/mol
TGAAACACGTGTGTGT	0.11 kcal/mol
CTTTGCACGTGTGCAG	0.04 kcal/mol
AGTGGCACGTGTAGGC	-0.01 kcal/mol

Sequence	relative binding free energy
CGAAGCACGTGTGGGC	0.03 kcal/mol
TAAGGCACGTGTACTT	-0.02 kcal/mol
GGTGGCACGTGAGTCT	0.23 kcal/mol
GATTACACGTGTGTCG	0.34 kcal/mol
GAATACACGTGGAGGT	0.02 kcal/mol
ATCTGCACGTGGGGTC	-0.14 kcal/mol
ATTGGCACGTGAGTGT	0.08 kcal/mol
GAGCTCACGTGTTTAG	0.34 kcal/mol
GAGTACACGTGGTACT	0.16 kcal/mol
AGAGGCACGTGATTGG	-0.13 kcal/mol
TAGTGCACGTGTCAGG	-0.06 kcal/mol
GATGTCACGTGGGTCA	0.07 kcal/mol
ACGTGCACGTGGGTGG	-0.19 kcal/mol
AGTTTCACGTGTATGG	0.31 kcal/mol
GTGGACACGTGCAGGT	0.01 kcal/mol
GTGGGCACGTGCAAAG	0 kcal/mol
TGAAACACGTGTGGCG	-0.01 kcal/mol
GCGATCACGTGTTGGG	0.19 kcal/mol
AAAAACACGTGGTGTG	0.02 kcal/mol
GTATTCACGTGTGTGG	0.33 kcal/mol
GTGGTCACGTGAACGG	0.21 kcal/mol
TCATGCACGTGGGGTC	-0.26 kcal/mol

Source: the BET-seq Pho4 binding data (Le et al. 2018)
